The values that follow come from the supplement of paper PMC4967469.

By IC50 is meant the dose at which the fit gives 50% viability; fits outside the tested doses are given as limits. For AUC the same curve is integrated over the 256-fold range of doses and scaled to a fraction: 1 means no effect, lower means more sensitive. For some assays here: A top dose marked as inferred was derived from the fitted curves, not read from the paper. For some assays here: Where an entry number is given, a second screen of the drug exists; the two often differ. A value given as a limit tells only on which side of the number the result lay.

Common to all, as to test: Viability of human cancer cell lines after 72 h of drug (GDSC screen)
Compound in one assay: CC(C)CC(=O)Nc1n[nH]c2c1CN(C(=O)C1CCN(C)CC1)C2(C)C [PHA-793887]
To be noted: top dose 10.24 µM. As for the experimental part: (§1)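 Human cancer cell lines in 384-well plates, medium with 10% serum, drug for 72 h over a 256-fold dose range (nine 2-fold or five 4-fold steps up to the top dose). Adherent lines were fixed and stained with the nucleic acid dye Syto60, suspension lines read with resazurin; signal relative to control wells, capped at 0 and 100%. One two-parameter sigmoid per drug and line, fitted in a mixed model over all curves with the slope shared within a line.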

Compound in another assay: C/C(=C\c1csc(C)n1)[C@@H]1C[C@@H]2O[C@]2(C)CCC[C@H](C)[C@H](O)[C@@H](C)C(=O)C(C)(C)[C@@H](O)CC(=O)O1 [Epothilone B]
Conditions: top dose 0.032 µM; top dose inferred. As for the experimental part:
as §1

Compound in a further assay: NC(=O)Nc1sc(-c2ccc(F)cc2)cc1C(N)=O [TPCA-1]
Conditions: top dose 20 µM. As for the experimental part: as §1

Compound in another assay: CCCS(=O)(=O)Nc1ccc(F)c(C(=O)c2c[nH]c3ncc(Cl)cc23)c1F [PLX4720]
To be noted: top dose 10 µM. As for the experimental part: as §1

Compound in another assay: C[C@@H](N)c1ccc(C(=O)Nc2ccnc3[nH]ccc23)cc1 [Y-39983]
To be noted: top dose 20 µM; top dose inferred. As for the experimental part:
as §1

Where [1] appears, read: screen: GDSC drug entry 1371, top dose inferred.

Regarding M14 (melanoma, adherent), the AUC with PHA-793887 amounted to 0.986; in the assay with Epothilone B, 0.87; with TPCA-1, 0.704; with PLX4720 (setting [1]), 0.549; with Y-39983, 0.947. The IC50 with PHA-793887 is over 10.2 µM; in the assay with Epothilone B, over 0.032 µM; with TPCA-1, 4.85 µM; with PLX4720 (setting [1]), 0.856 µM; with Y-39983, over 20 µM.

Take M059J (glioma, adherent): the AUC came to 0.803 with PHA-793887; 0.484 with Epothilone B; 0.765 with TPCA-1; 0.967 with PLX4720 (screen: GDSC drug entry 1036); 0.967 with PLX4720 (setting [1]); 0.82 with Y-39983. Besides, the IC50 with PHA-793887 was 5.58 µM; with Epothilone B, 0.00181 µM; with TPCA-1, 7.93 µM; with PLX4720 (screen: GDSC drug entry 1036), over 10 µM; in the assay with PLX4720 (setting [1]), over 10 µM; with Y-39983, 12.7 µM.

Turning to MC-IXC (neuroblastoma, adherent), the AUC stood at 0.872 with PHA-793887; 0.584 with Epothilone B; 0.746 in the assay with TPCA-1; 0.92 with PLX4720 (screen: GDSC drug entry 1036); 0.996 with PLX4720 (setting [1]); 0.996 with Y-39983. Also, the half-maximal inhibitory concentration (IC50) is 5.57 µM in the assay with PHA-793887; 0.0032 µM with Epothilone B; 5 µM in the assay with TPCA-1; 7.93 µM with PLX4720 (screen: GDSC drug entry 1036); over 10 µM in the assay with PLX4720 (setting [1]); over 20 µM with Y-39983.

With MCF7 (breast, adherent), the AUC with PHA-793887 turned out to be 0.986; with Epothilone B, 0.245; with TPCA-1, 0.986; with PLX4720 (screen: GDSC drug entry 1036), 0.899; with PLX4720 (setting [1]) it was 0.985; in the assay with Y-39983, 0.986. The half-inhibitory concentration (IC50) with PHA-793887 is over 10.2 µM; with Epothilone B, 0.000356 µM; with TPCA-1 it was over 20 µM; with PLX4720 (screen: GDSC drug entry 1036), over 10 µM; with PLX4720 (setting [1]), over 10 µM; with Y-39983 it was over 20 µM.

Consider MDA-MB-157 (breast, adherent), for which the AUC in the assay with PHA-793887 was 0.969; with Epothilone B, 0.967; in the assay with TPCA-1, 0.961; in the assay with PLX4720 (screen: GDSC drug entry 1036) it was 0.898; with PLX4720 (setting [1]), 0.987; with Y-39983, 0.974. The IC50 with PHA-793887 was over 10.2 µM; with Epothilone B it was over 0.032 µM; with TPCA-1, over 20 µM; with PLX4720 (screen: GDSC drug entry 1036), over 10 µM; with PLX4720 (setting [1]), over 10 µM; with Y-39983, over 20 µM.

On to MDA-MB-175-VII (breast, adherent), for which the AUC is 0.955 with PHA-793887; 0.952 with Epothilone B; 0.987 with TPCA-1; 0.986 with PLX4720 (setting [1]); 0.987 with Y-39983. The IC50 with PHA-793887 was over 10.2 µM; in the assay with Epothilone B, over 0.032 µM; with TPCA-1, over 20 µM; in the assay with PLX4720 (setting [1]), over 10 µM; in the assay with Y-39983, over 20 µM.

Consider MDA-MB-231 (breast, adherent), for which the AUC amounted to 0.971 with PHA-793887; 0.79 in the assay with Epothilone B; 0.986 with TPCA-1; 0.985 in the assay with PLX4720 (screen: GDSC drug entry 1036); 0.985 in the assay with PLX4720 (setting [1]); 0.983 with Y-39983. Moreover, the IC50 is over 10.2 µM with PHA-793887; 0.0152 µM in the assay with Epothilone B; over 20 µM with TPCA-1; over 10 µM with PLX4720 (screen: GDSC drug entry 1036); over 10 µM with PLX4720 (setting [1]); over 20 µM with Y-39983.

As for MDA-MB-330 (breast, adherent), the AUC with PHA-793887 is 0.916; in the assay with Epothilone B it was 0.867; with TPCA-1, 0.945; in the assay with PLX4720 (screen: GDSC drug entry 1036), 0.982; with PLX4720 (setting [1]), 0.97; with Y-39983, 0.969. Also, the IC50 in the assay with PHA-793887 was over 10.2 µM; with Epothilone B, over 0.032 µM; with TPCA-1, over 20 µM; in the assay with PLX4720 (screen: GDSC drug entry 1036) it was over 10 µM; with PLX4720 (setting [1]) it was over 10 µM; with Y-39983, over 20 µM.

Turning to MDA-MB-361 (breast, adherent), the AUC in the assay with PHA-793887 turned out to be 0.976; in the assay with Epothilone B, 0.79; in the assay with TPCA-1, 0.958; in the assay with PLX4720 (screen: GDSC drug entry 1036), 0.989; with PLX4720 (setting [1]), 0.984; with Y-39983, 0.984. Moreover, the IC50 in the assay with PHA-793887 is over 10.2 µM; in the assay with Epothilone B it was 0.0142 µM; with TPCA-1, over 20 µM; with PLX4720 (screen: GDSC drug entry 1036) it was over 10 µM; with PLX4720 (setting [1]), over 10 µM; in the assay with Y-39983, over 20 µM.

Turning to MDA-MB-415 (breast, adherent), the AUC with PHA-793887 came to 0.983; in the assay with Epothilone B, 0.818; with TPCA-1, 0.983; in the assay with PLX4720 (screen: GDSC drug entry 1036) it was 0.983; with PLX4720 (setting [1]), 0.98; with Y-39983, 0.981. The IC50 was over 10.2 µM with PHA-793887; 0.0267 µM in the assay with Epothilone B; over 20 µM in the assay with TPCA-1; over 10 µM with PLX4720 (screen: GDSC drug entry 1036); over 10 µM with PLX4720 (setting [1]); over 20 µM with Y-39983.

In the case of MDA-MB-436 (breast, adherent), the AUC is 0.97 in the assay with PHA-793887; 0.785 with Epothilone B; 0.939 with TPCA-1; 0.975 in the assay with PLX4720 (screen: GDSC drug entry 1036); 0.959 with PLX4720 (setting [1]); 0.944 with Y-39983. Besides, the IC50 is over 10.2 µM in the assay with PHA-793887; 0.0176 µM with Epothilone B; over 20 µM with TPCA-1; over 10 µM with PLX4720 (screen: GDSC drug entry 1036); over 10 µM with PLX4720 (setting [1]); over 20 µM with Y-39983.

On to MDA-MB-453 (breast, adherent), for which the AUC with PHA-793887 worked out at 0.793; with Epothilone B, 0.908; in the assay with TPCA-1, 0.953; with PLX4720 (screen: GDSC drug entry 1036), 0.976; with PLX4720 (setting [1]), 0.983; with Y-39983, 0.986. Also, the IC50 in the assay with PHA-793887 is 5.27 µM; in the assay with Epothilone B, over 0.032 µM; with TPCA-1 it was over 20 µM; with PLX4720 (screen: GDSC drug entry 1036) it was over 10 µM; with PLX4720 (setting [1]), over 10 µM; with Y-39983 it was over 20 µM.
